Results on 16 test systems are retold here after the supplement of paper PMC9927326.

Experiment in all cases: CLSI broth microdilution.
Compound in one experiment: CCC(C)n1ncn(-c2ccc(N3CCN(c4ccc(OCC5COC(Cn6cncn6)(c6ccc(Cl)cc6Cl)O5)cc4)CC3)cc2)c1=O [itraconazole]
Compound in another experiment: CCCCCOc1ccc(-c2cc(-c3ccc(C(=O)N[C@H]4C[C@@H](O)[C@@H](O)NC(=O)[C@@H]5[C@@H](O)[C@@H](C)CN5C(=O)[C@H]([C@H](O)CC(N)=O)NC(=O)[C@H]([C@H](O)[C@@H](O)c5ccc(O)c(OS(=O)(=O)O)c5)NC(=O)[C@@H]5C[C@@H](O)CN5C(=O)[C@H]([C@@H](C)O)NC4=O)cc3)no2)cc1 [micafungin]
Compound in another experiment: CCCCCOc1ccc(-c2ccc(-c3ccc(C(=O)N[C@H]4C[C@@H](O)[C@@H](O)NC(=O)[C@@H]5[C@@H](O)[C@@H](C)CN5C(=O)[C@H]([C@@H](C)O)NC(=O)[C@H]([C@H](O)[C@@H](O)c5ccc(O)cc5)NC(=O)[C@@H]5C[C@@H](O)CN5C(=O)[C@H]([C@@H](C)O)NC4=O)cc3)cc2)cc1 [anidulafungin]
Compound in a further experiment: CC[C@@H]([C@H](C)O)n1ncn(-c2ccc(N3CCN(c4ccc(OC[C@@H]5CO[C@@](Cn6cncn6)(c6ccc(F)cc6F)C5)cc4)CC3)cc2)c1=O [posaconazole]
Compound in another experiment: CC[C@H](C)C[C@H](C)CCCCCCCCC(=O)N[C@H]1C[C@@H](O)[C@@H](NCCN)NC(=O)[C@@H]2[C@@H](O)CCN2C(=O)[C@H]([C@H](O)CCN)NC(=O)[C@H]([C@H](O)[C@@H](O)c2ccc(O)cc2)NC(=O)[C@@H]2C[C@@H](O)CN2C(=O)[C@H]([C@@H](C)O)NC1=O [caspofungin]
Compound in a further experiment: C[C@@H](c1ncncc1F)[C@](O)(Cn1cncn1)c1ccc(F)cc1F [voriconazole]
Compound in the next experiment: C[C@@H]1[C@H](O)[C@@H](C)/C=C/C=C/C=C/C=C/C=C/C=C/C=C/[C@H](O[C@@H]2O[C@H](C)[C@@H](O)[C@H](N)[C@@H]2O)C[C@@H]2O[C@](O)(C[C@@H](O)C[C@@H](O)[C@H](O)CC[C@@H](O)C[C@@H](O)CC(=O)O[C@H]1C)C[C@H](O)[C@H]2C(=O)O [amphotericin B]
Compound in another experiment: Nc1[nH]c(=O)ncc1F [flucytosine]
Compound in a further experiment: OC(Cn1cncn1)(Cn1cncn1)c1ccc(F)cc1F [fluconazole]

MIC of clinical C. albicans isolates, CLSI broth microdilution (ranges and time not stated); higher = less susceptible. Call: susceptible or wild type [S] / resistant or non-wild type [R] by CLSI breakpoints or epidemiological cut-offs; intermediate and dose-dependent carry no call here (the paper groups them with resistant). '<=' and '>=' mark each drug's lowest and highest value, inferred; the source prints them plain. Isolates are numbered anew. Bounds are passed on as bounds.

Usually MIC stands for the smallest concentration in the dilution series that meets the test's criterion for growth inhibition. For the test system “Candida albicans isolate 134 (Erg11p: WT, Fur1p: WT, Tac1p: N896S,C858Y,N823K,I558V,F189S)”, the MIC is not above 0.015 mg/L [S] with itraconazole; 0.015 mg/L [S] with micafungin; 0.03 mg/L [S] in the experiment with anidulafungin; 0.015 mg/L [S] with posaconazole; 0.015 mg/L [S] with caspofungin; not above 0.008 mg/L [S] with voriconazole. In addition, the MIC with amphotericin B was 0.5 mg/L [S]; with flucytosine, not above 0.06 mg/L [S]; with fluconazole, 0.5 mg/L [S].

For the test system “Candida albicans isolate 135 (Erg11p: V437I,E266D, Fur1p: WT, Tac1p: L695F,I558V,A377V,F189S,N174D,M170I,L131I,K87N)”, the MIC with itraconazole is 0.03 mg/L [S]; in the experiment with micafungin it was 0.015 mg/L [S]; in the experiment with anidulafungin, not above 0.015 mg/L [S]; with posaconazole, 0.015 mg/L [S]; with caspofungin it was 0.03 mg/L [S]; with voriconazole, 0.015 mg/L [S]. The results for the MIC with amphotericin B, with flucytosine and with fluconazole were 0.5 mg/L [S], not above 0.06 mg/L [S] and 0.5 mg/L [S], respectively.

Take “Candida albicans isolate 136 (Erg11p: WT, Fur1p: WT, Tac1p: I895T)”: the MIC with itraconazole is 0.06 mg/L [S]; in the experiment with micafungin it was 0.015 mg/L [S]; with anidulafungin, not above 0.015 mg/L [S]; with posaconazole it was 0.06 mg/L [S]; with caspofungin, 0.015 mg/L [S]; in the experiment with voriconazole, 0.015 mg/L [S]. For the same test system, the MIC with amphotericin B is 1 mg/L [S]; with flucytosine, not above 0.06 mg/L [S]; in the experiment with fluconazole, 0.5 mg/L [S].

“Candida albicans isolate 137 (Erg11p: WT, Fur1p: R101C, Tac1p: WT)”: the MIC with itraconazole was not above 0.015 mg/L [S]; with micafungin it was 0.015 mg/L [S]; with anidulafungin, not above 0.015 mg/L [S]; with posaconazole, 0.015 mg/L [S]; with caspofungin it was 0.03 mg/L [S]; with voriconazole it was not above 0.008 mg/L [S]. Moreover, the MIC worked out at 0.5 mg/L [S] with amphotericin B, 0.5 mg/L [S] in the experiment with flucytosine and 0.25 mg/L [S] with fluconazole.

On to “Candida albicans isolate 138 (Erg11p: E266D, Fur1p: WT, Tac1p: C908Y,A377V,N174D,M170I,I109N,K87N)”, for which the MIC with itraconazole is 0.03 mg/L [S]; in the experiment with micafungin it was not above 0.008 mg/L [S]; with anidulafungin it was 0.03 mg/L [S]; in the experiment with posaconazole, 0.015 mg/L [S]; with caspofungin, 0.015 mg/L [S]; in the experiment with voriconazole it was not above 0.008 mg/L [S]. Besides, the MIC in the experiment with amphotericin B is 0.5 mg/L [S]; in the experiment with flucytosine it was not above 0.06 mg/L [S]; with fluconazole, 0.25 mg/L [S].

For the test system “Candida albicans isolate 139 (Erg11p: Y257H,A114S, Fur1p: R101C, Tac1p: A736V)”, the MIC was 1 mg/L [R] with itraconazole; 0.015 mg/L [S] with micafungin; not above 0.015 mg/L [S] with anidulafungin; 1 mg/L [R] with posaconazole; 0.03 mg/L [S] in the experiment with caspofungin; 1 mg/L [R] in the experiment with voriconazole. In addition, the MIC with amphotericin B is 0.25 mg/L [S]; in the experiment with flucytosine it was 0.12 mg/L [S]; with fluconazole, 32 mg/L [R].

On to “Candida albicans isolate 140 (Erg11p: E266D, Fur1p: WT, Tac1p: I558V,A377V,F189S,N174D,M170I,M170V,K87N)”, for which the MIC with itraconazole is 0.06 mg/L [S]; with micafungin, not above 0.008 mg/L [S]; in the experiment with anidulafungin it was not above 0.015 mg/L [S]; with posaconazole, 0.03 mg/L [S]; with caspofungin it was 0.015 mg/L [S]; in the experiment with voriconazole, 0.015 mg/L [S]. The values for the minimal inhibitory concentration (MIC) with amphotericin B, with flucytosine and with fluconazole were 1 mg/L [S], not above 0.06 mg/L [S] and 0.5 mg/L [S], respectively.

On to “Candida albicans isolate 141 (Erg11p: E266D, Fur1p: WT, Tac1p: N896S)”, for which the MIC in the experiment with itraconazole is not below 16 mg/L [R]; with micafungin, not above 0.008 mg/L [S]; with anidulafungin it was not above 0.015 mg/L [S]; in the experiment with posaconazole, not below 8 mg/L [R]; in the experiment with caspofungin, 0.03 mg/L [S]; with voriconazole, not below 8 mg/L [R]. Further, the results for the MIC with amphotericin B, with flucytosine and in the experiment with fluconazole were 0.5 mg/L [S], not above 0.06 mg/L [S] and not below 256 mg/L [R], respectively.

In the case of “Candida albicans isolate 142 (Erg11p: E266D, Fur1p: WT, Tac1p: N896S,I558V,A377V,F189S,N174D,M170I,K87N)”, the MIC with itraconazole is 0.03 mg/L [S]; with micafungin it was 0.015 mg/L [S]; in the experiment with anidulafungin, 0.12 mg/L [S]; with posaconazole, 0.015 mg/L [S]; in the experiment with caspofungin, 0.015 mg/L [S]; with voriconazole, not above 0.008 mg/L [S]. In addition, the minimal inhibitory concentration (MIC) with amphotericin B is 0.5 mg/L [S]; with flucytosine, not above 0.06 mg/L [S]; in the experiment with fluconazole, 0.5 mg/L [S].

As to “Candida albicans isolate 143 (Erg11p: V488I,E266D, Fur1p: WT, Tac1p: N896S,M170V,S108N)”, the minimum inhibitory concentration (MIC) is 0.03 mg/L [S] with itraconazole; 0.015 mg/L [S] with micafungin; not above 0.015 mg/L [S] with anidulafungin; 0.03 mg/L [S] in the experiment with posaconazole; 0.03 mg/L [S] with caspofungin; not above 0.008 mg/L [S] with voriconazole. Also, the MIC in the experiment with amphotericin B is 0.5 mg/L [S]; with flucytosine it was not above 0.06 mg/L [S]; with fluconazole it was 0.25 mg/L [S].

Regarding “Candida albicans isolate 144 (Erg11p: V488I,S441F,V437I, Fur1p: WT, Tac1p: WT)”, the minimum inhibitory concentration (MIC) was 0.06 mg/L [S] with itraconazole; 0.015 mg/L [S] with micafungin; not above 0.015 mg/L [S] with anidulafungin; 0.03 mg/L [S] with posaconazole; 0.06 mg/L [S] in the experiment with caspofungin; not above 0.008 mg/L [S] with voriconazole. For the same test system, the figures for the MIC with amphotericin B, in the experiment with flucytosine and with fluconazole were 0.5 mg/L [S], 0.25 mg/L [S] and 0.25 mg/L [S], respectively.

Turning to “Candida albicans isolate 145 (Erg11p: E266D, Fur1p: WT, Tac1p: N896S)”, the MIC in the experiment with itraconazole was 0.03 mg/L [S]; in the experiment with micafungin, 0.015 mg/L [S]; in the experiment with anidulafungin, 0.06 mg/L [S]; with posaconazole it was 0.015 mg/L [S]; with caspofungin, 0.06 mg/L [S]; with voriconazole it was not above 0.008 mg/L [S]. Moreover, the MIC is 0.5 mg/L [S] with amphotericin B, not above 0.06 mg/L [S] in the experiment with flucytosine and 0.5 mg/L [S] with fluconazole.

“Candida albicans isolate 146 (Erg11p: D153E, Fur1p: WT, Tac1p: I558V,A377V,M170V)”: the MIC with itraconazole is 0.06 mg/L [S]; with micafungin, 0.015 mg/L [S]; in the experiment with anidulafungin, not above 0.015 mg/L [S]; with posaconazole, 0.06 mg/L [S]; with caspofungin it was 0.06 mg/L [S]; with voriconazole, not above 0.008 mg/L [S]. The minimum inhibitory concentration (MIC) with amphotericin B is 0.5 mg/L [S]; with flucytosine, not above 0.06 mg/L [S]; with fluconazole, 0.5 mg/L [S].

On to “Candida albicans isolate 147 (Erg11p: V488I,L301S,E266D, Fur1p: WT, Tac1p: N896S,M170V,S108N)”, for which the MIC in the experiment with itraconazole was not below 16 mg/L [R]; with micafungin, not above 0.008 mg/L [S]; with anidulafungin, 0.12 mg/L [S]; with posaconazole it was not below 8 mg/L [R]; in the experiment with caspofungin it was 0.06 mg/L [S]; in the experiment with voriconazole, not below 8 mg/L [R]. Further, the MIC was 0.5 mg/L [S] in the experiment with amphotericin B, not above 0.06 mg/L [S] in the experiment with flucytosine and 128 mg/L [R] with fluconazole.

Turning to “Candida albicans isolate 148 (Erg11p: Y132H,T123I, Fur1p: R101C, Tac1p: E461K)”, the MIC was 0.25 mg/L [R] in the experiment with itraconazole; 0.015 mg/L [S] with micafungin; not above 0.015 mg/L [S] with anidulafungin; 0.12 mg/L [R] in the experiment with posaconazole; 0.015 mg/L [S] with caspofungin; 1 mg/L [R] in the experiment with voriconazole. In addition, the MIC with amphotericin B turned out to be 0.25 mg/L [S]; in the experiment with flucytosine it was 0.12 mg/L [S]; with fluconazole it was 32 mg/L [R].

As to “Candida albicans isolate 149 (Erg11p: WT, Fur1p: Q181*, Tac1p: M170V)”, the MIC is 0.03 mg/L [S] with itraconazole; 0.015 mg/L [S] with micafungin; 0.03 mg/L [S] with anidulafungin; 0.015 mg/L [S] in the experiment with posaconazole; 0.03 mg/L [S] with caspofungin; not above 0.008 mg/L [S] with voriconazole. Further, the results for the MIC with amphotericin B, with flucytosine and in the experiment with fluconazole were 0.5 mg/L [S], not above 0.06 mg/L [S] and 0.5 mg/L [S], respectively.
